20 molecules from PMC9911399, “Two distinct binding modes provide the RNA-binding protein RbFox with extraordinary sequence specificity” can be followed below.

The chains are these.
T1: RBFOX1 RRM RbFoxmut (Fox-RRM*) (Homo sapiens, UniProt Q9NWB1 109-208, R118D;E147R;N151S;E152T)
T1 sequence: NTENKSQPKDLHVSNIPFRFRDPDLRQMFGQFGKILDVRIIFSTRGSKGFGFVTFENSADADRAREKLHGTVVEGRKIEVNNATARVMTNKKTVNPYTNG

B1: GACGACG (DNA:RNA)
RNA: GGGAGACCGGAAUUCAGAUUGUCCGACGACGUUAAAUCCCGUCGUAGCCACCA
DNA 1: CAATCTGAATTCCGGTCTCCC
DNA 2: TGGTGGCTACGACGGGATT
B2: GCGUAUG (DNA:RNA)
RNA: B1 RNA with A26C, C27G, G28U, C30U
DNA 1: CAATCTGAATTCCGGTCTCCC
DNA 2: TGGTGGCTACGACGGGATT
B3: UACUCCG (DNA:RNA)
RNA: B1 RNA with G25U, G28U, A29C
DNA 1: CAATCTGAATTCCGGTCTCCC
DNA 2: TGGTGGCTACGACGGGATT
B4: CAUCCGC (DNA:RNA)
RNA: B1 RNA with G25C, C27U, G28C, A29C, C30G, G31C
DNA 1: CAATCTGAATTCCGGTCTCCC
DNA 2: TGGTGGCTACGACGGGATT
B5: CUAAACU (DNA:RNA)
RNA: B1 RNA with G25C, A26U, C27A, G28A, G31U
DNA 1: CAATCTGAATTCCGGTCTCCC
DNA 2: TGGTGGCTACGACGGGATT
B6: GAGAAAA (DNA:RNA)
RNA: B1 RNA with C27G, G28A, C30A, G31A
DNA 1: CAATCTGAATTCCGGTCTCCC
DNA 2: TGGTGGCTACGACGGGATT
B7: AACGCUA (DNA:RNA)
RNA: B1 RNA with G25A, A29C, C30U, G31A
DNA 1: CAATCTGAATTCCGGTCTCCC
DNA 2: TGGTGGCTACGACGGGATT
B8: CUAUCAA (DNA:RNA)
RNA: GGGAGACCGGAAUUCAGAUUGUCCCUAUCAAUUAAAUCCCGUCGUAGCCACCA
DNA 1: CAATCTGAATTCCGGTCTCCC
DNA 2: TGGTGGCTACGACGGGATT
B9: CGACCCG (DNA:RNA)
RNA: B8 RNA with U26G, U28C, A30C, A31G
DNA 1: CAATCTGAATTCCGGTCTCCC
DNA 2: TGGTGGCTACGACGGGATT
B10: CCGCUGC (DNA:RNA)
RNA: B8 RNA with U26C, A27G, U28C, C29U, A30G, A31C
DNA 1: CAATCTGAATTCCGGTCTCCC
DNA 2: TGGTGGCTACGACGGGATT
B11: CCGGACU (DNA:RNA)
RNA: B1 RNA with G25C, A26C, C27G, G31U
DNA 1: CAATCTGAATTCCGGTCTCCC
DNA 2: TGGTGGCTACGACGGGATT
B12: UCGGAAA (DNA:RNA)
RNA: B8 RNA with C25U, U26C, A27G, U28G, C29A
DNA 1: CAATCTGAATTCCGGTCTCCC
DNA 2: TGGTGGCTACGACGGGATT
B13: AGACAUC (DNA:RNA)
RNA: B8 RNA with C25A, U26G, U28C, C29A, A30U, A31C
DNA 1: CAATCTGAATTCCGGTCTCCC
DNA 2: TGGTGGCTACGACGGGATT
B14: CGGAGAG (DNA:RNA)
RNA: B8 RNA with U26G, A27G, U28A, C29G, A31G
DNA 1: CAATCTGAATTCCGGTCTCCC
DNA 2: TGGTGGCTACGACGGGATT
B15: UAUGCAC (DNA:RNA)
RNA: B8 RNA with C25U, U26A, A27U, U28G, A31C
DNA 1: CAATCTGAATTCCGGTCTCCC
DNA 2: TGGTGGCTACGACGGGATT
B16: GCCAAUA (DNA:RNA)
RNA: B1 RNA with A26C, G28A, C30U, G31A
DNA 1: CAATCTGAATTCCGGTCTCCC
DNA 2: TGGTGGCTACGACGGGATT
B17: UGACGGA (DNA:RNA)
RNA: B8 RNA with C25U, U26G, U28C, C29G, A30G
DNA 1: CAATCTGAATTCCGGTCTCCC
DNA 2: TGGTGGCTACGACGGGATT
B18: CUACCAU (DNA:RNA)
RNA: B8 RNA with U28C, A31U
DNA 1: CAATCTGAATTCCGGTCTCCC
DNA 2: TGGTGGCTACGACGGGATT
B19: AGAACCC (DNA:RNA)
RNA: B8 RNA with C25A, U26G, U28A, A30C, A31C
DNA 1: CAATCTGAATTCCGGTCTCCC
DNA 2: TGGTGGCTACGACGGGATT
B20: AGGAUAA (DNA:RNA)
RNA: B8 RNA with C25A, U26G, A27G, U28A, C29U
DNA 1: CAATCTGAATTCCGGTCTCCC
DNA 2: TGGTGGCTACGACGGGATT

Substitutions are numbered along the chain they refer to; changes in the protein carry UniProt numbers. The list shows a part of the results.

The test concerns the target T1, RBFOX1 RRM RbFoxmut (Fox-RRM*). As to the kind of experiment: EMSA; HiTS-Eq, 1 nM pool, 10 min; buffer printed only for the single-RNA assays: 10 mM Tris pH 7.5, 150 mM NaCl, 3.4 mM EDTA, 0.001% NP-40, 30 C. Particulars: tags: His6 N-terminal (pET28a); label: 5' 32P. Put shortly: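 Relative association constants, normalised to the cognate motif, were derived by comparing read counts of each RNA species with those of the control reaction. The RNA sequenced was the free fraction, separated by 8% native PAGE after a 10 min equilibration in 50 µL of 1 nM 5′-radiolabelled RNA (7 randomized nucleotides) with increasing concentrations of purified wild-type or mutant RbFox RRM.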
(In general: Mobility shift assays separate free from complexed probe on a gel.)
Consider B1, for which the binding signal is 0.0915 KA relative to UGCAUGU. The figure for B2 is 0.876 KA relative to UGCAUGU; for B3 it is 0.0523 KA relative to UGCAUGU; for B4 it is 0.0873 KA relative to UGCAUGU.

Consider B5, for which the binding signal was 0.0676 KA relative to UGCAUGU.

For the molecule B6, the binding signal is 0.0838 KA relative to UGCAUGU. The figure for B7 is 0.105 KA relative to UGCAUGU; for B8 it is 0.0659 KA relative to UGCAUGU; for B9 it is 0.0699 KA relative to UGCAUGU. The figure for B10 is 0.114 KA relative to UGCAUGU. The figure for B11 is 0.0659 KA relative to UGCAUGU.

Consider B12, for which the binding signal is 0.081 KA relative to UGCAUGU.

As for B13, the binding signal was 0.055 KA relative to UGCAUGU. The figure for B14 is 0.0916 KA relative to UGCAUGU. On to B15, for which the binding signal was 0.0765 KA relative to UGCAUGU. Turning to B16, the binding signal is 0.0925 KA relative to UGCAUGU. Turning to B17, the binding signal is 0.0634 KA relative to UGCAUGU. With B18 the figure was 0.0627 KA relative to UGCAUGU; with B19, 0.0712 KA relative to UGCAUGU; with B20, 0.0804 KA relative to UGCAUGU.
